± gives the standard deviation of the averaged measurements. Over roughly 4,000 sequences, “arbitrary fluorescence units” has its median near 830; the highest 2% begin near 6,500. The list lacks most of the strong results.
Target: RUNX1 (UniProt Q01196)
Assay: RUNX1 binding intensity (PBM fluorescence), RUNX1 alone (arbitrary fluorescence units); higher = stronger binding
Conditions: RUNX1 concentration 2 nM; ETS1 concentration 0 nM
Experimental: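 gcPBM on 36-bp genomic-derived probes (partner site mutated) containing one RUNX1 site and no ETS1 site. Recombinant human RUNX1 (2 nM) was incubated alone or with ETS1 (25 nM) and detected by anti-RUNX1 antibody fluorescence. Values are medians over 4 replicate spots (not normalised). The probes sit in constant array flanks that are not printed.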
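Further: Full-length recombinant human RUNX1 bound to double-stranded DNA microarray spots, detected with an Alexa488-labelled secondary antibody after the anti-RUNX1 primary, read as scanned spot fluorescence.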

UniProt Q01196, sequence (Q01196 whole entry): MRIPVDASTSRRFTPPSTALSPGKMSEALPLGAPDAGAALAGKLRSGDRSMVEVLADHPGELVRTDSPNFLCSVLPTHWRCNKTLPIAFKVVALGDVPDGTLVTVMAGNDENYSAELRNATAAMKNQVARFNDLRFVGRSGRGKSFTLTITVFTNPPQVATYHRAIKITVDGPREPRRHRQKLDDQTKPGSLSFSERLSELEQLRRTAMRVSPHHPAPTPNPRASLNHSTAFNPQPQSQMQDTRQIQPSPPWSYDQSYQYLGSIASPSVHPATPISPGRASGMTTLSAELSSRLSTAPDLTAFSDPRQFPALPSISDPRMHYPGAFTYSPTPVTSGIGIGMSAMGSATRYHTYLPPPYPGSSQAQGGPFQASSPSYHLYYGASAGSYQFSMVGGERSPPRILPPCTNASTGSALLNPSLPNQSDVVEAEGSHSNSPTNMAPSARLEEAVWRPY

Sequence | RUNX1 binding intensity
CGGGCCCGATCGCCTTCGCCGCCGCCCGCCCGCAAA | 973
GGCACCGGGAGTAGAGCTGCCCCTAGTTGCGGCAGT | 731
GTTCTCCTTTCTGTGCCGAGTGTGGTTTGCTATCAA | 1550
CCCTTCCCCACCGCAGTCCGCTCCCTGCCCCTCCCG | 3930
CCGCTCTTGCTGGAGGTCTCTTGACCGCTCACCCTC | 912
CTGTCTGCTTCACGTGGCCAGCCCTGACCGCGGCCC | 857
CCTCTCCATCTTCAGCACCACTGAGGCCGCAGTCTC | 1410
GTGGAAGCCACAGGGAGTGGGCAGCATGTAGCAGAA | 789
GGTCCGAAAACGATTCTGGACCTGCGGGTATATCCA | 767
AAAACCCAAACCACCCCTCAGGGAGCGTTAAGCAAG | 786
AGCGCCACCGCAGTGATGCAAGTCGGCAGTTGTAGT | 926
GGCGCGGGTAAGCCCTGGGACCCTCATGCTGGGGAG | 714
CGACCTCCGTCCCTGGGTGGGATCGAACCACCAACC | 1030
CTGGCCTCAGGCAGGAGGCAGTTTTGTGGCCCCAGG | 973
CGGAGGCTCACCGCGAAGCCTCCTGGGACATGTAGT | 803
TTTCTCAGGGTGACCGCGTTCCTTCGGCCCAGAGAG | 897
CTGCGGGTGACTGAGCGGGGCCAGCCTGAAGGGCGG | 790
CAGTTCTCAGGCTGCCTCCCTTCACCACAGCTGGCT | 1060
TTGATAGCAAACCACACTCGGCACAGAAAGGAGAAC | 1020
CGGGCCCTGTGGTTTCCAACACCCTGTAGGCGGCCT | 1070
TAGGCAGGCAGGGTGTGCCTATAAGCCACATGAATG | 636
GGCTGGAAAGGGTCTTGAGAGGAGGTGGTTGCCTTA | 705
TGCCGGGTCACCACAGGCGCACGTGTTCCAGCAGGG | 751
GGGAGGCAGTGTGAAGGGACTTTTGTGGTGAGTGAT | 798
TTTGCACACATGCTGGCCTCCGCCTGACCACCTCCT | 985

Sequence | RUNX1 binding intensity
CCCTCATCTTCATGCTTCAGGCAGCTGTGGTTTACC | 1140
TGAGATTAGTGGTTAAGTTGGTGCCGGGTGTCATCC | 978
ATAAGAATGTGGTTTCCAAAGTTCAGGTTCCTCTTG | 1890
GTCAGAAAACACATAGTTGTGTTTAACCTCAGGAAA | 888
GGGGAACGAAAGCTGCTGTCGTTACTGGCGGTTGTA | 669
TTTCTGATTGTGGTTTCAAATTATTTGCTGTGTTGG | 3190
GGGCGAAAGTGCGTCACTATGTCCGACCCGCAGTGC | 778
GGGCCCTTCATGTGGCGCCTGCCGAGCTGTGGTTGG | 730
TATCACGTTTGCTGCTGCTGCACCGCGACCTCAGCT | 714
CTAAGGCTGTGGGGATGGGATGACAGAAAGAGTATC | 806
CCTGCGGTACGCCTGGGTCACGCCTCTTGCGCTAAG | 976
ATGGGGAACGTGAACTACGGCGGGAACCACAATCGC | 783
TAAATGCTCACCACAACCTGCTGCCTTTTCTACCAG | 1630
TCCACAGCCGGTTTCGGCCGGTTCCCACAAGCCCCT | 909
CTGTTTGCTGCCTTTGCTGTCTGTGACCGCATCAGT | 952
TCGTGAAAAAGGAGGTGGATAAAGTGGTTACGGCAA | 779
CCAAACCCACTATCACTAATCATCTTTCTGTCATTC | 1710
TAGGTCACCTCCGCAACACAGCAACGGAGGTAGGGT | 622
CGGGCGCCCGCAGGCGGTGCTGCCGAATGCCCCGCC | 830
GCACTGGAGGAATCTGCTCTCCCTTGCGGCTGGACG | 739
CGGCCTTGCGGCATGGGCAGTCTCCGCCGCCATCCA | 841
GCTGTCCATTCCCGAGATGTTAATGCGGGATCTTGC | 819
CGAGGGAGCCTGAAAGATGGTGGTTACCAGATCTGC | 686
CAGTGAACAGTTTTCTGTTCCTGTGGTTTTGACTTT | 1310
CTCAGCTGAAGAGCGGGCCTCTGGGCCGCAGTGACC | 683

Sequence | RUNX1 binding intensity
AGTTGCTAAGGCAATGACTGCCCGCAGCGCCTGGCC | 735
CATGAGAAACACCCTGCCCAACCACCTGACTACAAG | 1080
CAGTTTGCCCTGGATGTTGACCGCCTTGAAGTCGTA | 830
GCGCTGTACTGCGGCTTGTGCCGCTCCCGCGAGAAG | 721
TGGCCCGCAGCAGTCACGTGGCCGCGCCTCCTCGCA | 678
GCTAAGAGCAGGCAATGATCTGGGAACCACCATCAC | 793
CTATTGTGGTGCCTGTTACCTACAGCAAATGAGACA | 704
TTGAGCGCGGTCTCGCCTCCGCTTGCTCCTCACTCC | 810
CTGCCTTGCTTTTACGGTCGCCGCGGTCCTCTGCGC | 841
AACACACACGTGGTTTCTCACCACTTGCTGGATGTC | 907
GGAGGGGGAGGTGGGCGGCTCTGCGGCCGCCATCTT | 884
AGTTGCCCGCAGGTCAACACCCAGTTCCCTTCAAAC | 867
GTTTACCACAGGACTCAAGTCTACATTGCCTGTCTC | 1320
CCCAACCATTCCCGCCACACCTCCAACCCACTGCCG | 1970
GCTGGTATGGCAGGCAGTTTCTCACCACAGTATACT | 762
AGGGTGTACTCGGGAGTTTCGAGTGGTTGCTTGGTT | 728
CCATTGGCAACCGCGCTGCGCCAACTTTCGGGTTGT | 896
GCACGCCTGTGGGTGCTCATGGGCAATGTAGTTTTT | 657
GGCGGCTGTGGGCGCAAAACCCAAAACTGCCGATGG | 748
GCGCGGCCCTGAAGGGGGTAACCGCTGAGTCTTTGA | 696
CCCCTCAATTCCCTCAACCCTTCCCACAAACTGGGA | 1730
TGGTGGAGCTGCGGCGGGCAATCGGAGATCGGCTAC | 716
ATGTTATTGTGGCTTCAAATTGCCTCTTGGCAAGCC | 813
TGCGCCGGGAGCAAGGGCTCCAAAACCACAGGGCGG | 999
GCTAGACAGTAAACAGTGAGCTTCTGTGGGCAGGAG | 814

Sequence | RUNX1 binding intensity
TGGAGAGCACTGGAAGTGGCCCACAGCCCAGGCCAA | 619
GGAGGGCTCCCTGCCCACCACCACCCACAGCAGCTG | 934
GGGGAAGAAGAAGCTGTGTCCGCGGTGCAAGGGGTT | 713
AAACTACTTTCCATCCTACCAAAACCACACTAAAGA | 2070
GCCCCGGGAGCTCCTTAAGGAGGACCGTGTGGGTTT | 726
CCCGGAGGGTTCCAGGGGTCGGCCTGCGGCGCGTGC | 1270
TTGTGCTTGCTGCTCATGAGATTGCTAGCGGTTACT | 659 ± 48
TGCGCCGCTGCGCCGCAGCCTCCGTAAGACAGGGGA | 722
AGCGGGAGGCAGTGCTGCAGTAGCCACAGCAGCCTG | 808
ACTCTGCGGGCCAAGAAAGGTGACCGGGCTGCCTTC | 700
TGTGAAGGAATCCATGGTTTCATGTCTGCGGCTCAG | 663
CTTAAGCTGCCGCACCATGATGGCGGCAGCCGCAGC | 716
GGAACAGTAAAAGCCTCCGGCAGCCCCTGCGGGCGG | 696
GGATGAACAGAAAGCTAAAGTAAATACCACAGTGAC | 848
CCTCTGAGCTGTGGTAACACCACTGCCTCCACTCCA | 965
GCGCAAGGATCAGGTTTGTTGTGGTGTGGGGAGGGG | 804
GTAAGATTCGTGGTTGAGCTTCTGTTTTACACTTGG | 847
GTCTGCGGTACCTCGCCACGCCCCCGCCCTTCAGGT | 1890
TTTCCTGAGGTTAAACACAACTATGTGTTTTCTGAC | 789
CGAGGACGCGGTTCCCAGAACTGAAGCAACCTGGGG | 775
GTGATGGTGGTTCCCAGATCATTGCCTGCTCTTAGC | 838
GGAATCCTACATCCCACAGCCCCTTGCTGAGAAGAG | 938
CTCAGCTTGTGGCTCCGGTGTCTCCGTTTTGGGGTT | 813 ± 92
GCTGCCCACAGCGCTCACCCTCCAGATCCCGGCCGC | 945
GGCTTGCGCCGCCACCACTGCCCCTCAACCGCCACG | 916

Sequence | RUNX1 binding intensity
AGAAAGAAAAACCAAAGTGCCTCCAGGCAGTAAACA | 729
TTTGTTGTTCAGGGTGCGAGGCGGCCGCAGCTTCCA | 936
CCGCCTTTTCGGAGCGCGGGCGCGCGGTGGCGGGAG | 791
TTGGCCTGGGCTGTGGGCCACTTCCAGTGCTCTCCA | 668
TGGAAGAGGGCACGAAGTGTTGTGGTCACTCCCACC | 748
GAGTGTTCCTGGAAAGCTGCGGCGTTGGAGCCGCGC | 837
TGGTCTGTGGCTGATATTTACGGGAGATGGGGCGAG | 816
CCCCATCCCCCGCATAGGGACCTCCTCTTTATTTAC | 1620
TTTGTGACTTAACCACACCTACATTGCCCATTTAAG | 1300
AGTTGGTTCCTTCAGGTGGGTTTGTGGGCTTGGGGT | 780
GGTAAACCATGCGGTCGATGGGGAGGATCTGGAGAT | 1270
CCATCCAGCAAGCTTATGGTGCGACCGCAGTGTGCC | 918
AGCTGCAGGGTGTGGTCAGGAGAGGAGGCGAGGCCT | 793
CCCCGGCTGTGGGGCTCTGGGAATCGGAGGCTAGCC | 685
CATGAAAACCAACAAGCCTGGTCTCCTCTGCGCAGC | 759
TCAGAACCAGAAAACTGAAGGCGGTTACTCCACATA | 715
CCGAAGAGCAAGCTCCACAGGACCTCCGCGGTCAGC | 749
CATCTGCGTACGGCACCCAGGAGGCTCGTGGTCCGC | 838
CTGGGCCTCCATTCCTCCTCCCACAGCCATATGCGA | 987
GCCAGGGCAGCAAGTTGCTAACCGCCCCAGAGCAGG | 766
GCCCAGGCTGCGGGATGGGGTCATTTGCTGCCGCCT | 754
CCCGGGGGCAGGCAATGTCGCCTTACCCACAGCCTT | 914
GACTGGGAACGAAGGGGAGGCGGCAACCACCCTTCA | 1450
ACACCGTTCATGAAGACAAAGCCACACCTCACACCA | 985
ACCCGTATGTCGTTGGGCAGGAACTGCGGTGAGGGC | 831

Reference: the supplement of paper PMC10681739
